Inconclusive results, whose numbers are uncertain, are shown with a selection of clear calls. For some assays here: Where the call is inconclusive, the potency comes from a doubtful curve fit. Calls of active or inactive are those of the source. Unless noted, calls follow the shape of the dose curve; as a rule, active = well fitted curve in the direction sought with a large enough effect; inconclusive = small, poorly fitted or top-dose-only effect, or another doubt; inactive = no such curve, though single readings can be large; an effect the other way counts as inactive or inconclusive.
Tests used:
[1] = molecular target: Pyruvate kinase PKM (Homo sapiens) (UniProt P14618); test: qHTS Assay for Inhibitors of Human Muscle Pyruvate Kinase (AID 958); details: purified human PKM enzyme activity
In short: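 Compound pinned into substrate mix (0.5 mM PEP, 0.1 mM ADP), then 0.1 nM PKM2 added; 1 h, RT. Stop/detection luciferase reagent added, luminescence read. Normalized to no-inhibition and no-enzyme or reference-inhibitor controls.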

[2] = molecular target: Ferritin light chain (Equus caballus) (UniProt P02791); test: qHTS Validation Assay for Identification of Novel General Anesthetics (AID 2323); details: horse apoferritin, anesthetic-site fluorescent probe displacement; series mostly up to 76.9 µM; also: potency is read from the fitted curve at half-maximal effect
In short: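 Apoferritin from horse spleen (10 uM) was mixed with 1-aminoanthracene at 50% saturation in PBS, then compounds were added. After 10 min at room temperature, fluorescence was read (ex 380 nm, em 535 nm) and normalized to free-probe and complex controls.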

[3] = molecular target: Atrial natriuretic peptide receptor 2 (Homo sapiens) (UniProt P20594); test: Natriuretic polypeptide receptor (hNpr2) antagonism - Pilot subtype selectivity assay (AID 1347050; calls by dose curve; also: potency is read from the fitted curve at half-maximal effect); details: NPR2-expressing cells, cGMP antagonist-mode read-out; series mostly up to 38.3 µM
In short: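 cGMP-sensor HEK293/hNpr2 cells; 2% GloSensor reagent 2 h RT; compounds 30 min; baseline luminescence read; 1 nM hNppC agonist 20 min RT; final luminescence read by CCD camera. Antagonism = reduced post-agonist signal.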

[4] = molecular target: Rap guanine nucleotide exchange factor 3 (Homo sapiens) (UniProt O95398); test: Confirmatory qHTS for antagonist of cAMP-regulated guanine nucleotide exchange factor 3 (EPAC1) (AID 1645880); details: EPAC1 Rap1B-BODIPY-GDP exchange, fluorescence; also: potency is read from the fitted curve at half-maximal effect; nearly all actives have a fitted effect of over 55% in size
In short: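 Nucleotide exchange uses 100 nM EPAC1, 250 nM RAP1B-BODIPY-GDP and 50 uM GDP, with compounds in a concentration-titration series. After 5 min at room temperature, fluorescence (480 nm ex/540 nm em) is read every 5 min for 30 min. Data are normalized to control ATA and DMSO.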

[5] = molecular target: Rap guanine nucleotide exchange factor 4 (Homo sapiens) (UniProt Q8WZA2); test: Confirmatory qHTS for antagonist of cAMP-regulated guanine nucleotide exchange factor 4 (EPAC2) (AID 1645885); details: EPAC2 Rap1B-BODIPY-GDP exchange fluorescence, biochemical; also: potency is read from the fitted curve at half-maximal effect; nearly all actives have a fitted effect of over 25% in size
[6] = Cell Viability - N2a (AID 540); details: N2a mouse neuroblastoma cell viability; activity change, negative = cytotoxicity: at 92.2 µM (top of the series);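 also: cells exposed to compound for 40 h at 37 °C; plate controls were DMSO alone for no effect and tamoxifen control for full effect; nearly all actives have a fitted effect of over 45% in size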
In short: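 First, 1500 N2a cells per well incubate 5 hr at 37 °C; next, compounds are added and incubated 40 hr at 37 °C; finally CellTiter-Glo is added and luminescence read after 20 min, with AC50 derived by Hill modeling.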

[7] = Cell Viability - SH-SY5Y (AID 544); details: SH-SY5Y neuroblastoma cell viability; at 92.2 µM (top of the series);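 also: cells exposed to compound for 40 hours; 0% = DMSO alone and -100% = 100 µM tamoxifen; nearly all actives have a fitted effect of over 55% in size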
In short: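 Cytotoxicity is scored as a concentration-dependent fall in intracellular ATP in human SH-SY5Y cells treated 40 hr in complete culture medium. Potency is expressed as AC50 from a Hill equation fit.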

[8] = Cell Viability - LYMP2-001 (AID 921); details: LYMP2-001 lymphoblastoid cell viability; series mostly up to 92.2 µM;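 also: 0% = DMSO only and full inhibition = tetraoctylammonium bromide control wells; nearly all actives have a fitted effect of over 70% in size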
In short: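 qHTS, 1536-well; lymphoblastoid cells, 24 hr compound, 37 C; ATP by CellTiter-Glo, 30 min RT; luminescence; Hill-fit AC50.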

[9] = Cell Viability - LYMP2-006 (AID 978); details: LYMP2-006 lymphoblastoid cell viability, qHTS;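 also: potency is read from the fitted curve at half-maximal effect; cells exposed to compound for 24 hours; nearly all actives have a fitted effect of over 60% in size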
In short: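 Concentration-dependent loss of intracellular ATP in a human lymphoblastoid line after 24 hr treatment at 37 C was measured by CellTiter-Glo luminescence, with AC50 values obtained from standard Hill-equation modelling.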

[10] = molecular target: Glucocorticoid receptor (Homo sapiens) (UniProt P04150); test: qHTS assay for small molecule antagonists of glucocorticoid receptor signaling (AID 588533; active = well fitted inhibition curve with a large enough effect in the signal ratio, with a control signal flat, not every such curve was filed as active; inconclusive = small, poorly fitted or top-dose-only effect, or effect the other way, or a change in a side signal; the % refers to the signal ratio;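 also: cells stimulated with 2 nM dexamethasone as agonist; % is scaled to controls: 0 for no effect and ±100 for the full control effect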); details: HeLa MMTV-bla, GRE beta-lactamase ratio, antagonist mode, 18 h; activity change, negative = inhibition: at 76.8 µM (top of the series)
[11] = qHTS of pediatric cancer cell lines to identify multiple opportunities for drug repurposing: Primary screen for control Hh wild type fibroblast cells (AID 1347106); details: Hh wild-type fibroblast viability, CellTiter-Glo luminescence, 48 h; series mostly up to 46 µM;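 also: % is scaled to controls: 0 for no effect and ±100 for the full control effect; a drop in luminescence marks cytotoxicity and a rise apparent proliferation; nearly all actives have a fitted effect of over 55% in size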
In short: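 Viability after 48 h compound treatment at 37C, 500-1,000 cells/well, read as ATP luminescence with CellTiter-Glo. Primary screens used 11-point (MIPE, 0.78 nM-46 µM) or 8-point (NPC, 0.59 nM-46 µM) final concentrations; follow-up screens used 11-point dilutions.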

[12] = qHTS Validation Assay to Find Inhibitors of Chronic Active B-Cell Receptor Signaling (AID 485345; active = well fitted curve in the direction sought with a large enough effect in the main read-out, with a control signal flat, not every such curve was filed as active; inconclusive = small, poorly fitted or top-dose-only effect, or effect the other way, or a change in a side signal; inactive = no such curve, though single readings can be large or run the other way;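 also: 0% = untreated basal cells and 100% = 10 µM MG-132 proteasome inhibitor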); details: ABC-DLBCL cells, chronic BCR signaling reporter, CBG luciferase; at 46.1 µM (top of the series)
In short: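 TMD8 ABC-DLBCL cells with dox-inducible green luciferase–IκBα fusion and red native luciferase; compounds 46 uM–3 nM, 4 h at 37C with doxycycline in 0.5% FBS IMDM. Green/red ratio normalized to basal and 10 uM MG-132.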

[13] = molecular target: ATPase family AAA domain-containing protein 5 (Homo sapiens) (UniProt Q96QE3); test: Validation screen for small molecules that inhibit ELG1-dependent DNA repair in human embryonic kidney (HEK293T) cells expressing luciferase-tagged ELG1 (AID 493107); details: HEK293T ELG1-luciferase level, luminescence, 5-fluorouridine co-treatment, 16 h; series mostly up to 46.1 µM;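 also: cells co-treated with the DNA-damaging agent 5-fluorouridine alongside compound; % is scaled to controls: 0 for no effect and ±100 for the full control effect; inhibitors lower the ELG1-luciferase luminescence signal; nearly all actives have a fitted effect of over 70% in size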
In short: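 Quantitative HTS in HEK293T cells carrying luciferase-tagged ELG1, stimulated with 5-fluorouridine alongside compound for 16 hr. Loss of luciferase signal marks inhibition of ELG1 response.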

[14] = Cell Viability - SK-N-SH (AID 435; calls by dose curve;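 also: potency is read from the fitted curve at half-maximal effect; compound exposure lasted 40 h at 37 °C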); details: SK-N-SH neuroblastoma cell viability qHTS
In short: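 Cells seeded at 1500 per well and incubated 5 hr at 37 °C. Compound added, then 40 hr at 37 °C. CellTiter-Glo added, 20 min at room temperature, luminescence read.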

[15] = molecular target: Cytochrome P450 2C9 (Homo sapiens) (UniProt P11712); test: qHTS Assay for Inhibitors and Substrates of Cytochrome P450 2C9 (AID 883); details: recombinant CYP2C9, luciferin-H luminescence, 60 min; series mostly up to 57.1 µM; also: % is scaled to controls: 0 for no effect and ±100 for the full control effect; nearly all actives have a fitted effect of over 60% in size
In short: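 CYP2C9 deoxyluciferin hydroxylation, 37C, 60 min with NADPH regeneration; 10nM enzyme, 100uM Luciferin-H (KM). Glo detection reagent stopped reaction; luminescence normalized to sulphaphenazole (57uM) full inhibition.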

[16] = molecular target: D(1A) dopamine receptor (Homo sapiens) (UniProt P21728); test: HTS Assay for Allosteric Agonists of the Human D1 Dopamine Receptor: Primary Screen for Agonists (AID 488981); details: Inducible HEK293 T-REx D1 cells, calcium-flux fluorescence, 180 s kinetic; series mostly up to 41.8 µM; also: potency is read from the fitted curve at half-maximal effect
In short: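 Tetracycline-induced HEK293 T-REx cells force-coupled to calcium signalling were incubated overnight at 30 C and dye-loaded at room temperature. Calcium flux over 180 s after compound addition flagged agonists; a further 180 s read after EC20 dopamine flagged potentiators.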

[17] = Counterscreen qHTS for small molecule stabilizers of the endoplasmic reticulum resident proteome: GLuc-NoTag assay (AID 1508627); details: Gaussia luciferase NoTag secretion counterscreen, luminescence, thapsigargin 100 nM for final 4 h; series mostly up to 76.4 µM;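 also: SH-SY5Y cells given compound then 100 nM thapsigargin to empty ER calcium; 0% = thapsigargin alone and -100% = DMSO vehicle control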
In short: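 SH-SY5Y cells stably expressing constitutively secreted GLuc (no SERCaMP tag) were pre-incubated 5 h, treated with compound for 19 h, then 100 nM thapsigargin for 4 h at 37C; medium GLuc read by coelenterazine luminescence.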

[18] = S16 Schwann cell PMP22 intronic element beta-lactamase assay (AID 624044; calls by dose curve;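 also: 0% = DMSO and -100% = potassium clavulanate positive control; nearly all actives have a fitted effect of over 15% in size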); details: S16 rat Schwann cells, PMP22 element beta-lactamase FRET, 24 h; ratio activity, negative = inhibition: at 38.3 µM (top of the series) unless noted
In short: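 Rat S16 Schwann cells with beta-Lac driven by a PMP22 intronic element, compound-treated 24 h at 37 °C. LiveBLAzer FRET B/G read: 460 nm normalized to potassium clavulanate vs DMSO; 535 nm FRET as viability; concentration-effect curves classified.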

[19] = test system: Zika virus NS2B-NS3 protease (unlinked complex); test: Confirmatory screen GU AMC qHTS for Zika virus inhibitors (AID 1347153); details: Recombinant NS2B-NS3 protease, AMC substrate fluorescence; series mostly up to 57.1 µM; also: nearly all actives have a fitted effect of over 70% in size; also: potency is read from the fitted curve at half-maximal effect;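 as to activity, negative = inhibition: percent inhibition with 0% = no inhibitor control and 100% = no enzyme control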
In short: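 Unlinked enzyme 25 nM, Tris pH 8.0/0.01% Tween 20; cpd 15 min RT, dark; + AMC substrate 10 µM (Km 18.3 µM); 340/450 nm read at t0 and 15 min; % inhibition → 4-param fit.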

[20] = molecular target: Luciferin 4-monooxygenase (Photinus pyralis) (UniProt P08659); test: Primary firefly luciferase (FLuc) qHTS assay for identification of artifact compounds. (AID 1845220); details: purified firefly luciferase, luminescence, 5 min; series mostly up to 54.1 µM; also: nearly all actives have a fitted effect of over 60% in size; also: potency is read from the fitted curve at half-maximal effect;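 as to activity change, negative = inhibition: plate controls were DMSO vehicle for no effect and no enzyme for full effect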
In short: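 In this counter-screen for luciferase artifacts, test compounds met substrate (10 uM each luciferin and ATP) before 10 nM enzyme started the reaction. Light output was measured 5 min later.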
Tags tell the direction and shape of the fitted curve.

Chain of UniProt P21728 (P21728 whole entry, looked up): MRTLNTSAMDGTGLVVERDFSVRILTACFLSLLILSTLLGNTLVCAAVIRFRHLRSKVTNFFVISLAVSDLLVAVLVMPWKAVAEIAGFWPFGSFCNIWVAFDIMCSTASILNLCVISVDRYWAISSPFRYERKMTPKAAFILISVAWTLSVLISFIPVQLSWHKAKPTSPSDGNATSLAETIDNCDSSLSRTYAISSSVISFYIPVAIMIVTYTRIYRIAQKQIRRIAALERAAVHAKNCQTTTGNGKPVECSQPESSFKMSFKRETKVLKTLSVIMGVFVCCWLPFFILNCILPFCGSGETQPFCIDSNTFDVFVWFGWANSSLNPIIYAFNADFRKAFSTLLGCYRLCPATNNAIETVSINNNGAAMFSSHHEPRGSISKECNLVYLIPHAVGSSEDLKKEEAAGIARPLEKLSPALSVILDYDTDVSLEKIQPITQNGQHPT
Chain of UniProt P11712 (P11712 whole entry, looked up): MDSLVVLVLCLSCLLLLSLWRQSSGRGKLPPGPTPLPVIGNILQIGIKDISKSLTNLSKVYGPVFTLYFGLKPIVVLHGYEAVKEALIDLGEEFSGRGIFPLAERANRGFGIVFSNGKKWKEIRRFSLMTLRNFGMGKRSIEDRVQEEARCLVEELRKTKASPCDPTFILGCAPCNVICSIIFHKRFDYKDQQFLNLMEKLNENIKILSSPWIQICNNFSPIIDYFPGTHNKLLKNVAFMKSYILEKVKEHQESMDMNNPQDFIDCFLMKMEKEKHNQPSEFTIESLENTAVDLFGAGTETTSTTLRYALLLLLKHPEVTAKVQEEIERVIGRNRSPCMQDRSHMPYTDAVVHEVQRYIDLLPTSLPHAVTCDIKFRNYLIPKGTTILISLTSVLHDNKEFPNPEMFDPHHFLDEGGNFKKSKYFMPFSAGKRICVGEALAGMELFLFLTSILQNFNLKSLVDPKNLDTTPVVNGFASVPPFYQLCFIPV
Chain of UniProt P02791 (P02791 whole entry, looked up): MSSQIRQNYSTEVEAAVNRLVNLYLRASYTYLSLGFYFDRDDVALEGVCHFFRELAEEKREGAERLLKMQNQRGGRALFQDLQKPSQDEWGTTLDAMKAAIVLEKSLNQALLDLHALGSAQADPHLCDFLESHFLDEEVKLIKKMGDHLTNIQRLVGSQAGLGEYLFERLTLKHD
Chain of UniProt Q8WZA2 (Q8WZA2 whole entry, looked up): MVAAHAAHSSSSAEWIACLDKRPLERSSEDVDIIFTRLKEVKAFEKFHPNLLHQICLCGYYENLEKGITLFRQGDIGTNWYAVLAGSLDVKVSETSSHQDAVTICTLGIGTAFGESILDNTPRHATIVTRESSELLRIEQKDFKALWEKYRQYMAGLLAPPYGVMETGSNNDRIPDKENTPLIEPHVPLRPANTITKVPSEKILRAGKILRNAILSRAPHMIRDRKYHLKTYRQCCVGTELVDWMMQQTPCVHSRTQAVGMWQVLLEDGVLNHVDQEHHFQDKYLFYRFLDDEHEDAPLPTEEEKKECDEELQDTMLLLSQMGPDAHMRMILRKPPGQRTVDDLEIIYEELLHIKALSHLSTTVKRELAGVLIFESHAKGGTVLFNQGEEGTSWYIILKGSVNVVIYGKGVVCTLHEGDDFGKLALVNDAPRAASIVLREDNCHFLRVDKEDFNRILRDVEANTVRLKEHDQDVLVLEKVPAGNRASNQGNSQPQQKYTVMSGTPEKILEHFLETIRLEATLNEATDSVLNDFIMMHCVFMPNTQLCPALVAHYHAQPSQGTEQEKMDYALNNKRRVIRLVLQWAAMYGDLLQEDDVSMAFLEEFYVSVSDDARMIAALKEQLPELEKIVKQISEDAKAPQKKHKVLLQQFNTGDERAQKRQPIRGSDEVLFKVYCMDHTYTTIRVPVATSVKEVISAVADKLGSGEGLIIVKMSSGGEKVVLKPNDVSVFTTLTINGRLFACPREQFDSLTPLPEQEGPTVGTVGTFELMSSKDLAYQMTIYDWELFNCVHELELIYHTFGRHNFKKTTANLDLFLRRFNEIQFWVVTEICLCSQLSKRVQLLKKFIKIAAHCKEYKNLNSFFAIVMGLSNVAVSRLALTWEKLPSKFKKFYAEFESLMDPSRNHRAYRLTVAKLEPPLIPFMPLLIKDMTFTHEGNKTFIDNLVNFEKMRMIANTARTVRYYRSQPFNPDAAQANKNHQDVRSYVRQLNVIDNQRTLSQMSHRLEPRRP
Chain of UniProt P20594 (P20594 whole entry, looked up): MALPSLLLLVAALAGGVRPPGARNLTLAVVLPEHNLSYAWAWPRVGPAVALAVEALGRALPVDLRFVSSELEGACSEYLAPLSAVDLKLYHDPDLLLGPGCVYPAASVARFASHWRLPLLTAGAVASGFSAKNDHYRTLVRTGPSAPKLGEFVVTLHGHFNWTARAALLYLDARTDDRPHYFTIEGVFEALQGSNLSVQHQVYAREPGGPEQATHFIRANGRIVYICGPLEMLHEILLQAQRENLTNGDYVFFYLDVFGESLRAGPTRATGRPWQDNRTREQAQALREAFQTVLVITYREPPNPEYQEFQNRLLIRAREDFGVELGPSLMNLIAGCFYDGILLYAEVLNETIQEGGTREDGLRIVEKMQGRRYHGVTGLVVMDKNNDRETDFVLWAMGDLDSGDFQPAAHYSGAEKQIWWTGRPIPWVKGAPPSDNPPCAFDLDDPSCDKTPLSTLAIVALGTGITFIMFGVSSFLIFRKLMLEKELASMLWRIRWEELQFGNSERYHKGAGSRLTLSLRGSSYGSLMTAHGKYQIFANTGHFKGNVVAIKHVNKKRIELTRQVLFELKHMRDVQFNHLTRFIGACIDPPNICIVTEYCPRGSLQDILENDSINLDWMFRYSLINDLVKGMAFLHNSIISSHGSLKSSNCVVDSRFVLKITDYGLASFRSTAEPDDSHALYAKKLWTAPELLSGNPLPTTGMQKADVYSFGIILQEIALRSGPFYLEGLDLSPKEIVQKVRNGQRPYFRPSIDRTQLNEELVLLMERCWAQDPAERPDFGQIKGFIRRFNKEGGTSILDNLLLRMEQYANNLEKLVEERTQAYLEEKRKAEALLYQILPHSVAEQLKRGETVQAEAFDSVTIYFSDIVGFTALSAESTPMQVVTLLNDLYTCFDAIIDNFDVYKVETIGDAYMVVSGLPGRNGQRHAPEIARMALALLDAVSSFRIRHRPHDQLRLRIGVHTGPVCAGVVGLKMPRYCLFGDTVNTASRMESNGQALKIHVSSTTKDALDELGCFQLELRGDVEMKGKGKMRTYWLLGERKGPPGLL
Chain of UniProt P14618 (P14618 whole entry, looked up): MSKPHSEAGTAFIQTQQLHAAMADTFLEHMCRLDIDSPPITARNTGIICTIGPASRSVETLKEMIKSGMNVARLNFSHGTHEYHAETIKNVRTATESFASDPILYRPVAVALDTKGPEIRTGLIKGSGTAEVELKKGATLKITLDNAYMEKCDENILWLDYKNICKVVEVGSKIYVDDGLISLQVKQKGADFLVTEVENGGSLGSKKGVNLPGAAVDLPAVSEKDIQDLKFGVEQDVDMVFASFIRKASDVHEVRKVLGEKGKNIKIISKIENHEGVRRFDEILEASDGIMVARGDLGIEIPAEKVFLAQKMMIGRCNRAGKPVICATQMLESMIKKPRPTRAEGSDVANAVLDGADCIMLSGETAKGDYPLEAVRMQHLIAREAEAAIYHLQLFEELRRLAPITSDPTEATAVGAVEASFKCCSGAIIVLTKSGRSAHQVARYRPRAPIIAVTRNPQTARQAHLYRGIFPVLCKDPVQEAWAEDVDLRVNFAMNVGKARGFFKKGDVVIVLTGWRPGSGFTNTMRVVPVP
Chain of UniProt P04150 (P04150 whole entry, looked up): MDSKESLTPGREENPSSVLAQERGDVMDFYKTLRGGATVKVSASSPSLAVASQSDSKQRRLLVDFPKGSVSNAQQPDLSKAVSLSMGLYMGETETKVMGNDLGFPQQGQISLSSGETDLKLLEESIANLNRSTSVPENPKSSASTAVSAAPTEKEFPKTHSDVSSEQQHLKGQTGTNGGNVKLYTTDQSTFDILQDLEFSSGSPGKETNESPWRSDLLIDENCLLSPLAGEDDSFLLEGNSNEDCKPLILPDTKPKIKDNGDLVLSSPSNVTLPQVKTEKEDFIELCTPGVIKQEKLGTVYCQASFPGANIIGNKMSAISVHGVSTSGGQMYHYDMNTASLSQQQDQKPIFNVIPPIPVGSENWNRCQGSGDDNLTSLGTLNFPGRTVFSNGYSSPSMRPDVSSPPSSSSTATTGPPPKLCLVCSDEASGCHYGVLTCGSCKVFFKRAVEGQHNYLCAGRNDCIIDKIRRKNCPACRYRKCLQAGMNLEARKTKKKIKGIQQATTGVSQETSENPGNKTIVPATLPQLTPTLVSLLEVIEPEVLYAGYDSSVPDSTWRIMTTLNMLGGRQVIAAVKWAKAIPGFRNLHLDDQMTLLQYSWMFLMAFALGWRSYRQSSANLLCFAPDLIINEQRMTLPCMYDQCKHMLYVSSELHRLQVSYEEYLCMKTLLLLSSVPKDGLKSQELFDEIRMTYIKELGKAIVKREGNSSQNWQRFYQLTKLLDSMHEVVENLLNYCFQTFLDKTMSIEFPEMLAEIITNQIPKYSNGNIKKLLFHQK

Clc1ccc(Cn2c(CN3CCCC3)nc3ccccc32)cc1
Potency [1]: inconclusive: 0.0079 µM [inhibitor, full curve, poor fit]
Potency [2]: inconclusive: 35.5 µM [inhibitor, partial curve]
Potency [3]: inconclusive: 16.5 µM [inhibitor, partial curve]

CC(C)=CCOc1ccc(/C=C/C(=O)c2ccc(OCC=C(C)C)cc2OCC(=O)O)cc1
Potency [4]: active: 49.8 µM
Potency [5]: active: 39.3 µM

NCCNCCNCCN
activity change, negative = cytotoxicity [6]: inactive: -20%
viability change, negative = cytotoxic [7]: inactive: -9.78%
Potency [8]: inactive
Potency [9]: inconclusive: 100 µM [cytotoxic, partial curve, poor fit]
Potency [10]: inactive
Potency [11]: inactive

C=CCc1ccccc1OCC(O)CNC(C)C (stereo unspecified)
activity change [12]: inactive: -3.68%
Potency [13]: inactive

O=C1C(c2[nH]c3ccccc3c2O)=Nc2ccccc21
Potency [14]: inactive: > 92 µM

COc1ccccc1N1CCN(CCCCNC(=O)c2ccc(-c3ccc(C(C)=O)cc3)cc2)CC1
Potency [15]: inactive

CC(N)C(=O)OC(C)(C)Cc1ccc(Cl)cc1 (stereo unspecified)
Potency [16]: inconclusive: 17.8 µM [activator, single point]

CN(C)CCOC(c1ccccc1)c1ccc(Br)cc1 (stereo unspecified)
Potency [17]: inactive

c1ccc(CNCCNCc2ccccc2)cc1
ratio activity, negative = inhibition [18]: inconclusive: 0.634%

CCOC(=O)c1cnc2c(cnn2CC)c1NN=C(C)C
Potency [19]: inactive
Potency [17]: inactive

Cc1cc2c(cc1S(N)(=O)=O)S(=O)(=O)CCC2
Potency [15]: inactive

CC[C@H](C)[C@H](NC(=O)[C@H]([C@@H](C)CC)N(C)C(C)=O)C(=O)N[C@H](C(=O)N[C@@H](CC(C)C)C(=O)[C@@]1(C)CO1)[C@@H](C)O
Potency [20]: inactive

CC(C)(C)Sc1c(CC(C)(C)C(=O)O)n(Cc2ccc(Cl)cc2)c2ccc(OCc3ccc4ccccc4n3)cc12
Potency [19]: inconclusive: 19.7 µM [inhibitor, partial curve]

CC1=C(C(=O)OC2CCCCC2)C(c2ccc([N+](=O)[O-])cc2)C2=C(CC(C)(C)CC2=O)N1 (stereo unspecified)
Potency [20]: inconclusive: 12 µM [inhibitor, partial curve, poor fit]

CC(=O)[C@@]1(O)CC[C@H]2[C@@H]3CCC4=CC(=O)CC[C@]4(C)[C@H]3CC[C@@]21C
Potency [16]: inactive
Potency [18]: inactive

— PubChem BioAssay (NCATS)
